# Paper PMC12040169 (PLOS Biology, 2025)
# The other results are listed elsewhere or left out.
# Tested on: T1, C. trachomatis L2/434/Bu expressing GFP (CTL2-GFP)
# T1 construct: L2/434/Bu GFP intracellular growth in HeLa cells
# Parameters: species or system HeLa; C. trachomatis total inclusion area by high-content imaging, normalised to DMSO
# Conditions: total inclusion area; 28.5 h, 10 µM; inhibitor
# Method in brief: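 After bulk GFP and resorufin fluorescence reads, cells were fixed, stained with Hoechst and imaged by high-content microscopy. Inclusion area and number (GFP) stood in for chlamydial growth, nuclei count (Hoechst) for host cell viability. MICs were derived as for the bulk readout.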
row,SMILES,% of control remaining
1,O=S(=O)(O)CCCSc1nc2ccccc2o1 [CBK026507N],97.4589
2,CN(C)CCNC(=O)c1cccc(-c2cc(N3CCCN(C)CC3)n3nccc3n2)c1 [CBK037143],101.849
3,CC(NC(=O)C1CCN(CCOc2ccc(F)cc2)CC1)c1cccc2ccccc12 (centres unmarked) [CBK148634],75.7117
4,CC[C@H]1CN(C(C)=O)CC[C@H]1CC(=O)Nc1nccs1 [CBK289130],84.6272
5,COc1ccc([C@@]23CC[C@@H](NC(=O)Nc4cccc(Br)n4)C[C@@H]2N(C)CC3)cc1OC [CBK045703],76.6442
6,CCCC(NC(=O)c1cccc(-n2cnnc2)c1)c1cccs1 (centres unmarked) [CBK282745],96.7714
7,COc1ccc(C(=O)N2CCN(c3ccc(NC(=O)c4cccnc4)cc3)CC2)cc1 [CBK270200],114.718
8,COc1cc(CNCCO)ccc1OCc1cccc(Cl)c1 [CBK270013C],60.6101
9,Cn1cc(C(C(=O)O)N2CCN(c3ccccc3)CC2)c2cc(C(=O)O)ccc21 (centres unmarked) [CBK286627],60.7293
10,CCOc1cc(Cl)c(S(=O)(=O)NCCCN2CCOCC2)cc1Cl [CBK268781],88.0572
11,CN(C)[C@@H]1CN(C(=O)C2CC2)C[C@H]1c1cn(C)c2ccccc12 [CBK282681],108.624
12,COc1ccccc1N1CCN(C(=O)c2c(Cl)cnn2C)CC1 [CBK288247],100.953
13,Cc1nc(-c2ccccc2)sc1C(=O)C1=C(O)C(=O)N(CCCN2CCOCC2)C1c1ccco1 (centres unmarked) [CBK266476],101.373
14,O=S(=O)([O-])CCC[n+]1c(/C=C/Nc2ccccc2)oc2ccc3ccccc3c21 [CBK261082],83.4883
15,CC1(C)CC(=O)c2sc(NS(=O)(=O)c3sc(Cl)cc3Br)nc2C1 [CBK200029],81.9914
16,Cc1cc(Br)ccc1NC(=O)Cn1cnc2c1c(=O)n(C)c(=O)n2C [CBK133289],95.9895
17,O=c1c(Oc2ccccc2Br)c(C(F)(F)F)oc2c(CN3CCCC3)c(O)ccc12 [CBK217827],106.982
18,Cc1ccc(C(=O)N2CCCN(C(=O)CN3CCCC3)C2)cc1 [CBK039081],72.3736
19,CCOc1c(OC)cc(C#N)cc1C(=O)O [CBK269925],95.7941
20,O=C(O)CCC(=O)Nc1ccccc1C(=O)N1CCCCC1 [CBK266100],98.5489
21,OCCC1CCCCN1c1nccnc1-c1ccsc1 (centres unmarked) [CBK037358],76.0812
22,Cc1ccccc1-n1nc(C)c(CN(C)CC2CCN(C)C2)c1C (centres unmarked) [CBK283035],112.831
23,COc1cc(OC)cc(C(=O)N2CCC3(CC2)CC(=O)c2c(OC)cc(OC)cc2O3)c1 [CBK164233],138.49
24,Cc1cccc(OCCn2c(CCNC=O)nc3ccccc32)c1C [CBK269539],97.7957
25,CC(=O)Nc1ccc(S(=O)(=O)Nc2ccc(-c3nc4cc(C(=O)c5ccccc5)ccc4[nH]3)cc2)cc1 [CBK267819],101.772

row,SMILES,% of control remaining
1,CC(NC(=O)CCCC(=O)c1cccs1)c1cccc2ccccc12 (centres unmarked) [CBK297748],66.0642
2,CC(Sc1nc(N(C)C)nc(N2CCOCC2)n1)C(=O)Nc1ccc(Cl)c(Cl)c1 (centres unmarked) [CBK269229],60.7496
3,CCOCCCNC(=O)C1CCN(c2cccc(F)c2C#N)CC1 [CBK306341],38.1909
4,CCNC(=O)O[C@@H]1CO[C@H]2[C@@H]1OC[C@@H]2NC(=O)Nc1ccc(C(C)=O)cc1 [CBK289473],93.3792
5,COc1ncccc1NC(=O)CSCC#N [CBK306314],79.8574
6,Cc1ccccc1NC(=O)Cc1nc(CN2CCC3(CCOC3)C2)cs1 (centres unmarked) [CBK304164],107.854
7,CC(=O)N(C)c1ncc(Br)cc1C(=O)NCCc1ccccc1 [CBK076543],108.941
8,CCC1CCCCN1C(=O)Cn1cnc2c(Cl)cc(Cl)cc2c1=O (centres unmarked) [CBK305833],99.1272
9,COc1ccc(-c2ccc(-c3cc(C(=O)O)c4ccccc4n3)o2)cc1 [CBK300542],57.4435
10,COC(=O)[C@H]1CCc2ccccc2N1C(=O)C1CCC1 [CBK285478],67.5197
11,O=C(O)CCC(NC(=O)c1ccc(Cl)cc1)C(=O)O (centres unmarked) [CBK263597],102.267
12,Cn1nnnc1SCC(=O)Nc1ccc(C(=O)O)cc1 [CBK267442],100.34
13,COCc1cc(CC2(NCc3ccc(NC(C)=O)cc3)COC2)no1 [CBK289701],140.248
14,O=C(NC1CCCCCC1)c1[nH]nc(O)c1Cc1c(Cl)cccc1Cl [CBK107847],99.9267
15,Cc1cc(C)cc(NC2=N[C@H]3[C@@H](O)[C@H](O)C[C@H](C(=O)N4CCCCC4)[C@H]3S2)c1 [CBK288952],109.279
16,O=C(c1cccs1)N1CCC2(CC1)Nc1ccccc1-n1cccc12 [CBK283489],94.6339
17,O=C(c1ccccc1CCc1ccccc1)N1CCN(Cc2ccc3c(c2)OCO3)CC1 [CBK268623],88.9451
18,CSc1ccc(C(NC(=O)OC(C)(C)C)C(=O)O)cc1 (centres unmarked) [CBK287196],96.7496
19,CCOC(=O)C1(C2CCCCC2)CCN(C(=O)c2cc[nH]c2)CC1 [CBK137103],133.719
20,Cc1cc(C23CC4CC(CC(C(=O)O)(C4)C2)C3)c(C)cc1C12CC3CC(CC(C(=O)O)(C3)C1)C2 [CBK261734],85.4401
21,CC(C)Nc1cc(OC2CCOC2)ncn1 (centres unmarked) [CBK115888],102.024
22,CC(=O)c1ccc(-c2nccnc2NCc2cccnc2)s1 [CBK037050],127.346
23,O=S(=O)(c1cc(Cl)sc1Cl)N1CCN(Cc2ccc3c(c2)OCO3)CC1 [CBK074743],84.2948
24,O=c1[nH]c(=O)n([C@@H]2O[C@H](CO)[C@H](O)C2O)cc1I (some centres unmarked) [CBK201304],125.781
25,CC[C@H]1CN(C(=O)Nc2cccc(C(F)(F)F)c2)CC[C@H]1CC(=O)O [CBK288776],116.304
